The campaign covered roughly 110,000 compounds. About 230 (0.21%) showed an effect of 50% or more. This is one part of the list.
What follows are molecules tested against DPAP1 (Plasmodium falciparum, UniProt Q8IIJ9) (assay: primary screen, percent inhibition; read by cleavage of a fluorogenic dipeptide substrate; higher = more effect of the substance).
Set-up: species or system P. falciparum D10 trophozoite lysates; single well
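Also: 30 min substrate incubation versus DMSO and 10 µM JCP410 controls.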

Chain of DPAP1 (Q8IIJ9 whole entry, looked up): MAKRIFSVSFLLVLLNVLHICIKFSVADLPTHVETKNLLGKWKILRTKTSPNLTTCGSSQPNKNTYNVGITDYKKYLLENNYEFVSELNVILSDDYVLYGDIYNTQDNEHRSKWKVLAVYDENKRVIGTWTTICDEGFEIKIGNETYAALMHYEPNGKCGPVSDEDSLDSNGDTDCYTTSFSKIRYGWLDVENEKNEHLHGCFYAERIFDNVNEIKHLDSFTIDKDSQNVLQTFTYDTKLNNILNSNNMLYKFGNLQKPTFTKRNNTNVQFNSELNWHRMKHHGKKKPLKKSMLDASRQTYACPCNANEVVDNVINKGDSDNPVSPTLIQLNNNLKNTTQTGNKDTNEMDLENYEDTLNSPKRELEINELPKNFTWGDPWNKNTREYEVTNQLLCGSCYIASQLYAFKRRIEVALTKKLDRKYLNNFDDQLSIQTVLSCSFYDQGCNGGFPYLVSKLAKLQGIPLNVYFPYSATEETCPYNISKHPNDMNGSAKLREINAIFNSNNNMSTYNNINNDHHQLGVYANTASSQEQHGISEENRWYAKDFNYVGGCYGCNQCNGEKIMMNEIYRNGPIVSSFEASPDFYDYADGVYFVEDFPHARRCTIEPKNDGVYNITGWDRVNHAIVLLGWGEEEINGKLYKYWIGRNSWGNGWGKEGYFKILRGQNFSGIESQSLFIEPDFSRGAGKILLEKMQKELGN

Compound | % Inhibition @ 10 uM [%]
CC(=O)Nc1cccc(NC(=O)/C=C/c2ccccc2)c1 | 1.63
CCOC(=O)C1=C(CS(=O)(=O)c2ccccc2)NC(=O)NC1c1ccc(O)c(OC)c1 (centres unmarked) | 1.24
CC(C)(C)NC(=O)C(=O)NCc1ccc(Cl)cc1 | -4.52
O=C(c1cccnc1)N1CCN(Cc2c[nH]c3ccccc23)CC1 | -3.21
COc1ccc(CNC(=O)Nc2cn(C)c(=O)c3ccccc23)cc1 | 0.974
Cc1ccc2nc(N(CCCN(C)C)C(=O)C3=COCCO3)sc2c1 | 7.22
CCOc1cc(C(=O)O/N=C(\N)c2ccccn2)cc(OCC)c1OCC | -4.84
COc1cc(C(=O)NCc2nnc(SCC(=O)NCc3ccc(F)cc3)o2)cc(OC)c1OC | 1.85
Cc1c2cnn(CC(=O)NC3CCCC(C)C3C)c(=O)c2c(C)n1Cc1ccc(Cl)cc1 (centres unmarked) | -5.81
CC(=O)N1CCN(C2CCSC2)CC1 (centres unmarked) | 4.54
CCOC(=O)N1CCN(C(=O)CSc2nnc(Cc3ccccc3)o2)CC1 | 2.42
COc1ccc(CNC(=O)c2cc3c(O)nc4ccccc4c3s2)c(OC)c1 | -2.29
COc1cc(OC)c(OC)cc1CN1CCN(Cc2cccnc2)CC1 | 2.3
COc1ccc(-n2nc3c(c2NC(=O)COc2ccc4ccccc4c2)CS(=O)(=O)C3)cc1 | 7.39
CCCC(=O)Nc1ccc(S(=O)(=O)Nc2cc(OC)nc(OC)n2)cc1 | -3.95
CCN(Cc1ccccc1)C(=O)C1CCC(C/N=c2/c(N3CCOCC3)c(O)c2=O)CC1 (centres unmarked) | -0.447
O=C(O)c1ccc(S(=O)(=O)Cc2ccccc2)cc1 | -1.92
O=C(NCCOCC(F)(F)F)c1sc2ccccc2c1Cl | -6.25
N=C1/C(=C\c2cccn2CCCOc2ccccc2Cl)C(=O)N=C2SC(N3CCOCC3)=NN12 | 1.72
COc1ccccc1/C=C1\C(=O)NC(=O)N(c2ccc(Cl)cc2)C1=O | 1.41
COc1ccc(CN2CCN(c3cccc(C(F)(F)F)c3)CC2)cc1 | 1.48
Cc1ccc(NC(=O)c2ccc([N+](=O)[O-])cc2Cl)cc1Cl | 0.827
O=C(NCc1ccc2c(c1)OCO2)c1cnn(-c2ccccc2Cl)c1C1CCNCC1 | -8.75
COc1ccc2[nH]c(SCC(=O)Nc3c(C)cccc3C)nc2c1 | 1.64
CCCCNCC(O)COc1cccc(OC)c1 (centres unmarked) | 2.22

Compound | % Inhibition @ 10 uM [%]
C/N=c1\c(NC(=O)c2ccc3c(c2)OCO3)c(O)oc2ccccc12 | -0.426
CCN1C=C(C(=O)OC)C(c2ccc(OC)cc2OC)C(C(=O)OC)=C1 | 1.88
Cc1ccc(NS(=O)(=O)c2cccc(C(=O)Nc3cccc(C(=O)O)c3)c2)cc1 | 3.25
CC(C)NS(=O)(=O)c1cccc2cccnc12 | 3.74
O=C1N=C(N2CCN(CCO)CC2)S/C1=C\c1ccc(-c2ccccc2)cc1 | 4.57
Oc1c2c(nc3nncn13)-c1ccccc1CC21CCCC1 | -2.63
CC1(C)CC(=O)c2cnc(NC3CCCC3)nc2C1 | -10.9
Cc1[nH]c2ccccc2c1CCN1C(=O)OC(C)(C)C1(C)O (centres unmarked) | 8.5
OC(c1ccccc1)(c1ccc(Br)cc1)C(CN1CCOCC1)c1ccccc1 (centres unmarked) | -4.07
COCCCn1c(SCC(=O)NCCc2ccccc2)nc2c(sc3ccccc32)c1=O | 8.3
COc1cc2c(cc1OC)[C@H]1CN3CCc4cc(OC)c(OC)cc4[C@@H]3CN1CC2 | -2.56
CC(=O)Nc1nonc1N1C(=N)S/C(=C\c2ccc(-c3ccc(Cl)c(C(F)(F)F)c3)o2)C1=O | 3.81
COc1ccc(S(=O)(=O)N2CCN(c3ccccc3)CC2)c(Cl)c1Cl | 2.42
O=C(/C=C/c1ccc(Cl)cc1)NC1CCS(=O)(=O)C1 (centres unmarked) | -3.27
CC1CCN(C(=O)/C(=C\c2ccccc2)NC(=O)c2ccc(Cl)cc2Cl)CC1 | 5.98
CCc1c(O)n(-c2ccccc2)c(=S)[nH]c1=O | 0.526
CCS(=O)(=O)N1CCN(Cc2ccc3c(c2)OCO3)CC1 | -4.18
CCOCCCNC(=O)c1c(NC(=O)c2cc(=O)c3cc(C)ccc3o2)sc2c1CCCC2 | -3.24
COc1cc([N+](=O)[O-])cc(CN(CCc2ccccc2)Cc2ccccc2)c1O | 6.32
CCOCCCNC(=O)C1CCCN(S(=O)(=O)c2ccc(F)cc2)C1 (centres unmarked) | 0.401
CC(=O)Nc1cccc(NC(=O)c2cccc(Cl)c2)c1 | 3
CCCC(C)n1nc(O)c2c1NC(=O)CSC2c1ccc(OC(C)C)cc1 (centres unmarked) | 2.89
CCOc1ccc(C(=O)N2CCc3cc(OC)c(OC)cc3C2COc2ccc(OC)cc2)cc1 (centres unmarked) | 2.06
O=C(Nc1ccccc1F)c1ccc(Cl)cc1 | 5.29
COc1ccc(CC(=O)Nc2ccc3c(c2)C(=O)N(c2ccccc2)C3=O)cc1 | 3.1
